Each structure is given as a SMILES string. Screen size: about 48,000 compounds; about 550 (1.1%) were called active. Another 4% or so got no clear call; they are omitted. No stated cut-off is given here; in the data, active means potency below about 15 µM; inconclusive means mostly about 16 µM to 33 µM; inactive means weaker than that. Some of the results follow.
Potency means the concentration at half of the fitted maximal effect.

UniProt P04062, sequence (P04062 whole entry, looked up): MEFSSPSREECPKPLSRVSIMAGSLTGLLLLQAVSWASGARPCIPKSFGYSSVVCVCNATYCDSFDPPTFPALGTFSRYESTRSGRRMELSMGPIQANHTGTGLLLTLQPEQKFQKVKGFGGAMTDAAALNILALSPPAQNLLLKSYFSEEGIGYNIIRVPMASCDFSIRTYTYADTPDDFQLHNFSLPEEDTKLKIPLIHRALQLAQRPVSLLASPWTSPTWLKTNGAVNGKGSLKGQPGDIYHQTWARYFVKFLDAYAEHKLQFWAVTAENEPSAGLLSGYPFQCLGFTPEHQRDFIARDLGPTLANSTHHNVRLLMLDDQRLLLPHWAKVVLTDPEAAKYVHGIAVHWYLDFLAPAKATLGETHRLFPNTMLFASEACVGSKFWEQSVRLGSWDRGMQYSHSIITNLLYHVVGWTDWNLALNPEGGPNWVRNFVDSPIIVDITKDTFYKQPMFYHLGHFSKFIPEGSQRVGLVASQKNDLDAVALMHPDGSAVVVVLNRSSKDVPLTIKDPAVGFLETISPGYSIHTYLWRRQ

The test addresses Lysosomal acid glucosylceramidase (Homo sapiens) (UniProt P04062). Put plainly: Glucocerebrosidase.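 Further: the screen sought inhibitors.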 Conditions: purified enzyme, resorufin glucoside fluorescence (screen aimed at inhibitors), 20 min; series mostly up to 77 µM. In outline:
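Normal human glucocerebrosidase (0.2 nM final) was assayed with resorufin β-D-glucopyranoside (30 uM final) in 50mM citric acid/KH2PO4, 10mM sodium taurocholate, 0.01% tween-20, pH 5.9. Compounds were titrated; fluorescence (Ex 548, Em 600) read after 20 min at RT.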
Regarding `COc1ccc(-c2cc(=O)c3ccccc3s2)cc1`, the Potency is inactive: > 76.9 µM.
In the case of `Nn1c(SCC(=O)N2CCCc3ccccc32)nnc1-c1ccccc1`, the Potency was inactive: > 76.9 µM.
Regarding `COc1ccc(OC)c(S(=O)(=O)NC2CCN(Cc3ccccc3)CC2)c1`, the Potency was inactive: > 76.9 µM.
Take `C(=NC12CN3CN(CN(C3)C1)C2)c1ccc2c(c1)OCO2`: the Potency is inactive: > 76.9 µM.
Consider `c1ccc(-c2nc3cc(Oc4ccc5oc(-c6ccccn6)nc5c4)ccc3o2)nc1`, for which the Potency was inactive: > 76.9 µM.
Then `Cc1nnc(SCC(=O)NC2CC2)n1CCc1ccccc1`, with inactive: > 76.9 µM; and `N#CCCS(=O)(=O)c1nnnn1-c1ccccc1`, with inactive: > 76.9 µM.
Then `Cc1ccc(C(=O)CC2(O)C(=O)N(Cc3ccc4c(c3)OCO4)c3ccccc32)cc1` (stereo unspecified), with inactive: > 76.9 µM; and `CCc1ccc(OCC(=O)N(C)C2CCS(=O)(=O)C2)cc1` (stereo unspecified), with inactive: > 76.9 µM; and `Cc1cccc(CC2CC(=O)N(c3ncccn3)C2=O)c1` (stereo unspecified), with inactive: > 76.9 µM.
Take `Cc1ccc(OCC(=O)N(Cc2ccc(N(C)C)cc2)C2CCS(=O)(=O)C2)cc1` (stereo unspecified): the Potency is inactive: > 76.9 µM.
Then `Cc1sc2ncn3cnnc3c2c1C`, with inactive: > 76.9 µM; and `CCCCn1nnc(NC(=O)c2ccc(-c3ccccc3)cc2)n1`, with inactive: > 76.9 µM; and `CCS(=O)(=O)Nc1c(C(=O)O)[nH]c2ccccc12`, with inactive: > 76.9 µM.
With `Cn1c(=O)[nH]c(=O)c2c1nc(OC(=O)c1ccccc1)n2CC(O)COc1ccccc1` (stereo unspecified), the Potency is inactive: > 76.9 µM.
As for `C=CCc1ccccc1OCCn1ccnc1`, the Potency was inactive: > 76.9 µM.
As for `CC1CCN(CC(=O)Nc2ccccc2C#N)CC1`, the Potency is inactive: > 76.9 µM.
Regarding `CSCCC(NC(=O)c1ccc(=O)n(C)n1)c1nc2ccccc2[nH]1` (stereo unspecified), the Potency was inactive: > 76.9 µM.
Regarding `CCCCCOC(=O)CSc1nnc(-c2ccccc2)c(=O)[nH]1`, the Potency was inactive: > 76.9 µM.
Then `O=C(CSc1nnc(CN2CCOCC2)n1-c1ccc(Cl)cc1)N1CCc2ccccc21`, with inactive: > 76.9 µM; and `Cc1ccc(C(C(=O)NC2CCCCC2)N(CCC(C)C)C(=O)CNC(=O)c2ccco2)o1` (stereo unspecified), with inactive: > 76.9 µM; and `Cc1ccc(-c2ccc(=O)n(CC(=O)NCCN3CCCCC3C)n2)cc1` (stereo unspecified), with inactive: > 76.9 µM.
On to `C[C@H](NC(=O)NCc1cccs1)C(=O)O`, for which the Potency is inactive: > 76.9 µM.
As for `O=C(CSc1nnc(CNC(=O)c2ccccc2F)o1)Nc1ccc2c(c1)OCCO2`, the figure is inactive: > 76.9 µM.
With `Cc1ccc(C(=O)N2CCOCC2)cc1S(=O)(=O)Nc1cccc(C)c1C`, the Potency is inactive: > 76.9 µM.
Turning to `O=C(CN1CCOCC1)Nc1scc(-c2ccccc2)c1C(=O)N1CCOCC1`, the Potency was inactive: > 76.9 µM.
Turning to `O=C(CN(CCc1ccccc1)C(=O)CNS(=O)(=O)c1ccccc1)NCC1CCCO1` (stereo unspecified), the Potency was inactive: > 76.9 µM.
On to `CC(C)(C)C1CCc2onc(C(=O)NC3CCCC3)c2C1` (stereo unspecified), for which the Potency is inactive: > 76.9 µM.
Turning to `CSCCC1NC(=O)NC1=O` (stereo unspecified), the Potency was inactive: > 76.9 µM.
Turning to `Cc1cc(OCC(=O)N2CCCC2)cc(C)c1Cl`, the Potency was inactive: > 76.9 µM.
For the compound `O=C1CC(N2CCN(C/C=C/c3ccccc3)CC2)C(=O)N1Cc1ccc(N2CCCC2=O)cc1` (stereo unspecified), the Potency is inactive: > 76.9 µM.
With `COc1ccc(NC(=O)c2cccc(-n3cnnn3)c2)cc1`, the Potency was inactive: > 76.9 µM.
On to `O=C(NCc1cccs1)C1CCCN(c2nc3ccccc3o2)C1` (stereo unspecified), for which the Potency is inactive: > 76.9 µM.
Take `O=C(Cc1ccccc1)Nn1cnc2ccccc21`: the Potency is inactive: > 76.9 µM.
Then `O=C(Nc1nc(-c2ccc(S(=O)(=O)N3CCCCCC3)cc2)cs1)c1cccs1`, with active: 13.9 µM; and `Cc1cc(O)c(-c2n[nH]c3c2C(c2cccc(O)c2)N(Cc2cccnc2)C3=O)cc1Cl` (stereo unspecified), with “inactive”.
For `Cc1cc(C)n(C(=O)c2cc3ccccc3c(=O)o2)n1`, the Potency was inactive: > 76.9 µM.
Turning to `O=C(O)c1ccc2nc(C(F)(F)F)[nH]c2c1`, the Potency was inactive: > 76.9 µM.
Take `Cc1ccc(-c2nnn(CC(=O)N(Cc3cccs3)C(C(=O)NC3CCCC3)c3ccco3)n2)o1` (stereo unspecified): the Potency is inactive: > 76.9 µM.
As for `Cc1cc(C(=O)OCC(=O)NC(=O)NC(C)(C)C)c(C)o1`, the Potency is inactive: > 76.9 µM.
Then `CC1CCCC(C)N1C(=O)CN1C(=O)C(C)(C)Oc2ccc(C(=O)NC3CCCCC3)cc21` (stereo unspecified), with inactive: > 76.9 µM; and `CCOC(=O)c1ccc(NC(=O)c2cc(S(=O)(=O)N3CCOCC3)ccc2O)cc1`, with inactive: > 76.9 µM.
Consider `Cc1nc(SCC(=O)Nc2cc(C)on2)c2c(C)c(C)sc2n1`, for which the Potency is inactive: > 76.9 µM.
Then `CCOc1ccc(/C(O)=C2/C(=O)C(=O)N(CCOCCO)C2c2ccc(F)cc2)cc1` (stereo unspecified), with inactive: > 76.9 µM; and `COc1ccc(NC(=O)CSc2nc3ccccc3c(=O)n2CCNC(C)=O)cc1`, with inactive: > 76.9 µM.
Consider `Cc1nc(N2CCc3ccccc32)[nH]c(=O)c1CCC(C)C`, for which the Potency is inactive: > 76.9 µM.
For `CCOC(=O)c1cccc(NC(=O)CSc2nnc(-c3cccnc3)n2CC)c1`, the Potency was inactive: > 76.9 µM.
For the compound `CCOC(=O)c1c(C)c(C(=O)NC2CCCCCC2)c(C)n1C`, the Potency was inactive: > 76.9 µM.
As for `Cc1cc2n(n1)C(c1ccc3c(c1)OCO3)Nc1c(C)cccc1-2` (stereo unspecified), the figure is inactive: > 76.9 µM; as for `COc1ccc(-n2nnnc2SCC(=O)N2CCCC2)cc1OC`, inactive: > 76.9 µM; as for `Cc1cccc(NC(=O)c2snc3c(=O)[nH]cnc23)c1`, inactive: > 76.9 µM.
As for `COc1cc(CO)cc(Br)c1OCC(=O)N1CCCCC1`, the figure is inactive: > 76.9 µM; as for `Nn1c(SC/C=C/c2ccccc2)nnc1-c1ccccn1`, inactive: > 76.9 µM.
Regarding `Cc1ccc2c(c1)cc(CN(Cc1ccc3c(c1)OCO3)S(=O)(=O)c1ccccc1)c1nnnn12`, the Potency is inactive: > 76.9 µM.
In the case of `CN(C)CCNC(=O)c1cc2ccccc2oc1=O`, the Potency was inactive: > 76.9 µM.
Then `c1ccn2cc(CSC3=NCCS3)nc2c1`, with inactive: > 76.9 µM; and `O=C(Cc1ccccc1)NCc1nc2ccccc2[nH]1`, with inactive: > 76.9 µM; and `Cc1cc(C)c2c(n1)nn1c(N3CCN(Cc4ccccc4)CC3)cc(C)nc21`, with inactive: > 76.9 µM.
`O=C(Cc1ccc(Cl)cc1)NCC(=O)N1CCCC1`: the Potency is inactive: > 76.9 µM.
`CC(=O)Nc1ccc(-c2nn3c(C)nnc3s2)cc1C`: the Potency was inactive: > 76.9 µM.
For `CCn1c(=O)c(C(=O)NCCc2ccccc2)c(O)c2ccccc21`, the Potency was inactive: > 76.9 µM.
`O=C(CCN1C(=O)C2(OCCO2)c2ccccc21)c1ccccc1`: the Potency is inactive: > 76.9 µM.
Then `c1ccc(-n2nnnc2N2CCOCC2)cc1`, with inactive: > 76.9 µM.
As for `CCOc1ccc(NC(=O)c2oc3ccccc3c2NC(=O)C2CC2)cc1`, the figure is inactive: > 76.9 µM.
Regarding `O=C1CSC(c2ccccn2)N1Cc1cn2ccccc2n1` (stereo unspecified), the Potency is inactive: > 76.9 µM.
Then `CC(C)C[C@H](NC(=O)Nc1ccc(S(N)(=O)=O)cc1)C(=O)O`, with inactive: > 76.9 µM.
For the compound `O=C(CN1C(=O)COc2ccc(Cl)cc21)Nc1ccc2c(c1)OCCO2`, the Potency is inactive: > 76.9 µM.
As to `CC(C(=O)Nc1ccc(S(=O)(=O)N2CCOCC2)cc1)N(c1ccccc1)S(C)(=O)=O` (stereo unspecified), the Potency is inactive: > 76.9 µM.
On to `Cc1cc(C)nc(SCc2cccc(C(=O)O)c2)n1`, for which the Potency is inactive: > 76.9 µM.
In the case of `Cc1cc(C)cc(NC(=O)CN(C)S(=O)(=O)c2cnc[nH]2)c1`, the Potency was inactive: > 76.9 µM.
Turning to `Cc1cc(S(=O)(=O)N2CCCC2)ccc1OCC(=O)NCc1ccco1`, the Potency is inactive: > 76.9 µM.
Regarding `O=P(O)(O)COc1ccccc1P(=O)(c1ccccc1)c1ccccc1`, the Potency was inactive: > 76.9 µM.
With `CCN(CC)S(=O)(=O)c1ccc(NC(=O)COc2c(OC)cccc2OC)cc1`, the Potency is inactive: > 76.9 µM.
Regarding `O=C(Nc1ccc2c3c(cccc13)CC2)c1ccco1`, the Potency was inactive: > 76.9 µM.
Regarding `CCOc1ccc(-c2nnn(CC(=O)N3CCN(c4ccc(OC)cc4)CC3)n2)cc1OCC`, the Potency is inactive: > 76.9 µM.
Take `COCC(N)(c1ccccc1)c1nc2ccccc2n1C` (stereo unspecified): the Potency was inactive: > 76.9 µM.
Regarding `COC(=O)CSc1nc(C2CC2)cc(C(F)(F)F)c1C#N`, the Potency is inactive: > 76.9 µM.
Then `Cn1nc(C(=O)NCc2ccccc2)c2ccccc2c1=O`, with inactive: > 76.9 µM; and `O=C(O)CCn1c(C(=O)O)cc2sccc21`, with inactive: > 76.9 µM; and `CCOC(=O)C1=C(c2ccccc2)NC(=O)NC1c1ccc(OCC#N)c(OC)c1` (stereo unspecified), with inactive: > 76.9 µM.
Then `CCn1c(SCC(=O)NCc2ccccc2)nc2ccccc2c1=O`, with inactive: > 76.9 µM.
As for `C=CCN1C(=O)C(CC(=O)NCC)SC1=Nc1ccc(S(N)(=O)=O)cc1` (stereo unspecified), the figure is inactive: > 76.9 µM.
Regarding `COc1cc(OC)c(C(=O)Oc2ccc3c(c2)OCO3)cc1OC`, the Potency is inactive: > 76.9 µM.
As to `CCOC(=O)N1CCC(NS(=O)(=O)c2cc3c(cc2Cl)NC(=O)CO3)CC1`, the Potency was inactive: > 76.9 µM.
Take `O=C(NC1CCCCCC1)c1cccc(N2CCCC2=O)c1`: the Potency was inactive: > 76.9 µM.
With `CCC(=O)Nc1ccc(Cl)c(NC(=O)c2ccc(Br)o2)c1`, the Potency was inactive: > 76.9 µM.
Then `CCCOc1ccc(C(=O)Nn2c(C)nc3ccccc3c2=O)cc1`, with inactive: > 76.9 µM; and `COC(=O)C1=C(C)OC(N)=C(C#N)C1c1ccccc1` (stereo unspecified), with inactive: > 76.9 µM; and `CCCCOC(=O)C1=C(C)Nc2ncnn2C1c1ccc(OC)c(OC)c1` (stereo unspecified), with inactive: > 76.9 µM.
As for `COC(=O)C1C(c2ccccc2)C(C(=O)N2CCN(C)CC2)C1c1ccccc1` (stereo unspecified), the figure is inactive: > 76.9 µM; as for `CCNCCNC(=O)c1c(O)c2cccc3c2n(c1=O)CCC3`, inactive: > 76.9 µM.

For the origin of these results see PubChem BioAssay AID360 (National Center for Advancing Translational Sciences (NCATS), 2006).
